# Test results taken from the supplement of paper PMC4604168 (melanoma cell lines).
# This is one part of the list. Repeats are few or missing, and single values can be far off.
# Tested on: COLO829
# Test: cell count relative to DMSO control; melanoma cells; higher = more viable cells
# Conditions: library dose: standard library concentration; 72 h
# 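Further: cells treated in 1,536-well plates, then fixed and DAPI-stained, with nuclei counted from automated high-throughput microscope images.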
row,SMILES,cell count
1,"C#Cc1cccc(Nc2ncnc3cc(OCCOC)c(OCCOC)cc23)c1 [erlotinib] + COc1cc2c(Oc3ccc4[nH]c(C)cc4c3F)ncnc2cc1OCCCN1CCCC1 [cediranib] (first compound 4 µM, partner dose 2 µM)",82.8%
2,"Clc1ccc(Nc2nnc(Cc3ccncc3)c3ccccc23)cc1 [vatalanib] + Cn1c(Nc2ccc(C(F)(F)F)cc2)nc2cc(Oc3ccnc(-c4ncc(C(F)(F)F)[nH]4)c3)ccc21 [CHIR265] (first compound 10 µM, partner dose 0.4 µM)",35.6%
3,"Nc1cccc2c1CN(C1CCC(=O)NC1=O)C2=O (stereo not drawn) [lenalidomide] + CO[C@@H]1[C@H](N(C)C(=O)c2ccccc2)C[C@H]2O[C@]1(C)n1c3ccccc3c3c4c(c5c6ccccc6n2c5c31)C(=O)NC4 [Midostaurin] (first compound 5 µM, partner dose 0.4 µM)",81.5%
4,"Cn1c(Nc2ccc(C(F)(F)F)cc2)nc2cc(Oc3ccnc(-c4ncc(C(F)(F)F)[nH]4)c3)ccc21 + COCC[n+]1c2c(n(Cc3cnccn3)c1C)C(=O)c1ccccc1C2=O [YM155] (first compound 0.4 µM, partner dose 0.002 µM)",66.3%
5,"Clc1ccc(Nc2nnc(Cc3ccncc3)c3ccccc23)cc1 [vatalanib] + CN(C)S(=O)(=O)c1ccc2c(c1)/C(=C/c1cc3c([nH]1)CCCC3)C(=O)N2 [SU6656] (first compound 10 µM, partner dose 2 µM)",71.1%
6,"OCc1c[nH]c2ccccc12 [Indole-3-carbinol] + C[C@@H]1CCN(C(=O)CC#N)C[C@@H]1N(C)c1ncnc2[nH]ccc12 [CP690550] (first compound 4 µM, partner dose 5 µM)",118%
7,"Clc1ccc(Nc2nnc(Cc3ccncc3)c3ccccc23)cc1 [vatalanib] + COc1cc(Nc2ncc(F)c(Nc3ccc4c(n3)NC(=O)C(C)(C)O4)n2)cc(OC)c1OC [Tamatinib] (first compound 10 µM, partner dose 2 µM)",48.1%
8,"C#Cc1cccc(Nc2ncnc3cc(OCCOC)c(OCCOC)cc23)c1 [erlotinib] + Cc1ccc(NC(=O)c2cccc(N(C)C)c2)cc1NC(=O)c1ccc(O)cc1 [ZM336372] (first compound 4 µM, partner dose 10 µM)",75.5%
9,"Nc1cccc2c1CN(C1CCC(=O)NC1=O)C2=O (stereo not drawn) [lenalidomide] + CN(C)S(=O)(=O)c1ccc2c(c1)/C(=C/c1cc3c([nH]1)CCCC3)C(=O)N2 [SU6656] (first compound 5 µM, partner dose 2 µM)",73.6%
10,"Cn1c(Nc2ccc(C(F)(F)F)cc2)nc2cc(Oc3ccnc(-c4ncc(C(F)(F)F)[nH]4)c3)ccc21 + CN(NC(=O)CC(=O)NN(C)C(=S)c1ccccc1)C(=S)c1ccccc1 [STA4783] (first compound 0.4 µM, partner dose 0.03 µM)",40.7%
11,"O=C(CCCCCCC(=O)Nc1ccccc1)NO [vorinostat] + CC1(C)NC(=O)N(c2ccc([N+](=O)[O-])c(C(F)(F)F)c2)C1=O [nilutamide] (first compound 0.4 µM, partner dose 5 µM)",85.2%
12,"COCC[n+]1c2c(n(Cc3cnccn3)c1C)C(=O)c1ccccc1C2=O + CC(C)(C)c1cnc(CSc2cnc(NC(=O)C3CCNCC3)s2)o1 [SNS-032] (first compound 0.002 µM, partner dose 0.05 µM)",82%
13,"C#Cc1cccc(Nc2ncnc3cc(OCCOC)c(OCCOC)cc23)c1 [erlotinib] + CO[C@@H]1[C@H](N(C)C(=O)c2ccccc2)C[C@H]2O[C@]1(C)n1c3ccccc3c3c4c(c5c6ccccc6n2c5c31)C(=O)NC4 [Midostaurin] (first compound 4 µM, partner dose 0.4 µM)",69.5%
14,"Clc1ccc(Nc2nnc(Cc3ccncc3)c3ccccc23)cc1 [vatalanib] + O=C(Nc1cccc(Cl)c1)Nc1ncc(CCNc2ncnc3ccsc23)s1 [SNS314] (first compound 10 µM, partner dose 0.004 µM)",56.9%
15,"COCC[n+]1c2c(n(Cc3cnccn3)c1C)C(=O)c1ccccc1C2=O + C[C@@H]1CCN(C(=O)CC#N)C[C@@H]1N(C)c1ncnc2[nH]ccc12 [CP690550] (first compound 0.002 µM, partner dose 5 µM)",163%
16,"Cn1c(Nc2ccc(C(F)(F)F)cc2)nc2cc(Oc3ccnc(-c4ncc(C(F)(F)F)[nH]4)c3)ccc21 + CC1(C)NC(=O)N(c2ccc([N+](=O)[O-])c(C(F)(F)F)c2)C1=O [nilutamide] (first compound 0.4 µM, partner dose 5 µM)",54.7%
17,"COCC[n+]1c2c(n(Cc3cnccn3)c1C)C(=O)c1ccccc1C2=O + NC(=O)Nc1cc(-c2cccc(F)c2)sc1C(=O)N[C@H]1CCCNC1 [AZD7762] (first compound 0.002 µM, partner dose 0.1 µM)",79.7%

row,SMILES,cell count
1,"C#Cc1cccc(Nc2ncnc3cc(OCCOC)c(OCCOC)cc23)c1 [erlotinib] + CN(C)S(=O)(=O)c1ccc2c(c1)/C(=C/c1cc3c([nH]1)CCCC3)C(=O)N2 [SU6656] (first compound 4 µM, partner dose 2 µM)",69.4%
2,"Cn1c(Nc2ccc(C(F)(F)F)cc2)nc2cc(Oc3ccnc(-c4ncc(C(F)(F)F)[nH]4)c3)ccc21 + COc1cc2c(Oc3ccc4[nH]c(C)cc4c3F)ncnc2cc1OCCCN1CCCC1 [cediranib] (first compound 0.4 µM, partner dose 2 µM)",66.1%
3,"Clc1ccc(Nc2nnc(Cc3ccncc3)c3ccccc23)cc1 [vatalanib] + Cc1ccc(NC(=O)c2cccc(N(C)C)c2)cc1NC(=O)c1ccc(O)cc1 [ZM336372] (first compound 10 µM, partner dose 10 µM)",78%
4,"Cn1c(Nc2ccc(C(F)(F)F)cc2)nc2cc(Oc3ccnc(-c4ncc(C(F)(F)F)[nH]4)c3)ccc21 + CC(C)(C)c1cnc(CSc2cnc(NC(=O)C3CCNCC3)s2)o1 [SNS-032] (first compound 0.4 µM, partner dose 0.05 µM)",52.1%
5,"C#Cc1cccc(Nc2ncnc3cc(OCCOC)c(OCCOC)cc23)c1 [erlotinib] + COc1cc(Nc2ncc(F)c(Nc3ccc4c(n3)NC(=O)C(C)(C)O4)n2)cc(OC)c1OC [Tamatinib] (first compound 4 µM, partner dose 2 µM)",89.6%
6,"Cn1c(Nc2ccc(C(F)(F)F)cc2)nc2cc(Oc3ccnc(-c4ncc(C(F)(F)F)[nH]4)c3)ccc21 + C[C@]1(c2nc3c(C(N)=O)cccc3[nH]2)CCCN1 [Veliparib] (first compound 0.4 µM, partner dose 7 µM)",57.1%
7,"COCC[n+]1c2c(n(Cc3cnccn3)c1C)C(=O)c1ccccc1C2=O + CC1(C)NC(=O)N(c2ccc([N+](=O)[O-])c(C(F)(F)F)c2)C1=O [nilutamide] (first compound 0.002 µM, partner dose 5 µM)",72.5%
8,"O=C(CCCCCCC(=O)Nc1ccccc1)NO [vorinostat] + CO[C@@H]1[C@H](N(C)C(=O)c2ccccc2)C[C@H]2O[C@]1(C)n1c3ccccc3c3c4c(c5c6ccccc6n2c5c31)C(=O)NC4 [Midostaurin] (first compound 0.4 µM, partner dose 0.4 µM)",61.1%
9,"Clc1ccc(Nc2nnc(Cc3ccncc3)c3ccccc23)cc1 [vatalanib] + C=CCn1c(=O)c2cnc(Nc3ccc(N4CCN(C)CC4)cc3)nc2n1-c1cccc(C(C)(C)O)n1 [MK1775] (first compound 10 µM, partner dose 0.1 µM)",54.2%
10,"OCc1c[nH]c2ccccc12 [Indole-3-carbinol] + OCCn1cc(-c2cnc3nnn(Cc4ccc5ncccc5c4)c3n2)cn1 [PF04217903] (first compound 4 µM, partner dose 5 µM)",98.1%
11,"COCC[n+]1c2c(n(Cc3cnccn3)c1C)C(=O)c1ccccc1C2=O + Cn1nnc2c(C(N)=O)ncn2c1=O [temozolomide] (first compound 0.002 µM, partner dose 10 µM)",62%
12,"OCc1c[nH]c2ccccc12 [Indole-3-carbinol] + O=C(O)c1ccc(-c2c[nH]c3ncc(-c4ccccc4)cc23)cc1C1CCCC1 [GSK650394] (first compound 4 µM, partner dose 0.8 µM)",71.1%
13,"COCC[n+]1c2c(n(Cc3cnccn3)c1C)C(=O)c1ccccc1C2=O + O=C(Nc1cccc(Cl)c1)Nc1ncc(CCNc2ncnc3ccsc23)s1 [SNS314] (first compound 0.002 µM, partner dose 0.004 µM)",63.1%
14,"C#Cc1cccc(Nc2ncnc3cc(OCCOC)c(OCCOC)cc23)c1 [erlotinib] + Nc1cccc2c1CN(C1CCC(=O)NC1=O)C2=O [lenalidomide] (first compound 4 µM, partner dose 5 µM)",71.9%
15,"O=C(CCCCCCC(=O)Nc1ccccc1)NO [vorinostat] + OCCn1cc(-c2cnc3nnn(Cc4ccc5ncccc5c4)c3n2)cn1 [PF04217903] (first compound 0.4 µM, partner dose 5 µM)",71.2%
16,"Nc1cccc2c1CN(C1CCC(=O)NC1=O)C2=O (stereo not drawn) [lenalidomide] + OCCn1cc(-c2cnc3nnn(Cc4ccc5ncccc5c4)c3n2)cn1 [PF04217903] (first compound 5 µM, partner dose 5 µM)",88.3%
